# Experimental data: article PMC12136788
# The other results are listed elsewhere or left out.
# B1: ENSG00000104142:stop:overlap|stop_codon|ENSG00000104142|stop_codon|NA|stop_codon (ssRNA)
# RNA: GGGAGUUCUACAGUCCGACGAUCCUAUCGACCGGCCGUUCAUCGACCCCCAGCGCUACGAGGAGGAGCAGCUCAGUUGGCUGUAGGAGGGUGUCACCUUUGAUGGGGGGUGGGCAAUGGGGAGCAGUGGCUUGAACCCACUUGCAACAGAGGAUUGAGCAUCA
# B2: chr7:6690371:6690472:-|3pUTR|ENSG00000164631|msi1|FALSE|bound_elsewhere (ssRNA)
# RNA: GGGAGUUCUACAGUCCGACGAUCUGAAAAAAAAAAAAGAAAUAGAAGAUUCCUGCUGUGAAUAAACAUACUUCUUGUGUAAAUAGAAACUGUAAAGUCAUCAGGAUAGCUAGUUAAGUCGGUAACCUUAAACUCAUGUAAGCACAACAGAGGAUUGAGCAUCA
# B3: chr9:132670296:132670397:+|5pUTR|ENSG00000125484|msi1|total|mutant (ssRNA)
# RNA: GGGAGUUCUACAGUCCGACGAUCCCUCCCCUUUACCGCCCCGUGCGUUUCCUCAGCACUUCCGGAACUAAAGCCUGUCUGGGCCGCUCCCUAACAGGCUCUGGAGCUCAAUCCCUGGGCAGGGAAAAGGGGGUCCUCGGGGCUCAACAGAGGAUUGAGCAUCA
# B4: chr5:144162273:144162391:-|CDS|ENSG00000145817|unk|FALSE|unique (ssRNA)
# RNA: GGGAGUUCUACAGUCCGACGAUCCCCAUAGGCUGGCAAAAUCCAGUUUGGCUAUGUAUACGGGAUCAGUGCAAUUGGAUGUCUAGGAAUGUUUUGUUUAUUAAACUUAAUGAGUAUGACAGGUGUUUCAUUUGGUUGUGUGGCCAACAGAGGAUUGAGCAUCA
# B5: chr2:32414998:32415099:+|CDS|ENSG00000115760|unk|total|mutant (ssRNA)
# RNA: GGGAGUUCUACAGUCCGACGAUCCCAUGUUUAUCCGCUGGAGGUUUAUUAACAUAUAAAUCUCCUGCUACCUCACCCAUCCGCCGUAAUUCUCACAGGUCACUGGAUGGUUUAAGCAGAACUCAGGGUGAAAGUAUAUCAGAACAACAGAGGAUUGAGCAUCA
# B6: ENSG00000070961:be:win_351|CDS|ENSG00000070961|bound_else_gene|NA|bound_elsewhere_windowed (ssRNA)
# RNA: GGGAGUUCUACAGUCCGACGAUCAGCCAUAGUAUCAUUGGGCCUUUCUUUUUAUCAGCCUCCAGAAGGGGAUAAUGCACUUUGUGGAGAAGUUUCUGUUGGGGAGGAAGAAGGUGAAGGUGAAACUGGUUGGAUUGAAGGAGCCAACAGAGGAUUGAGCAUCA
# B7: chr1:225494445:225494546:-|3pUTR|ENSG00000154380|msi1|total|mutant (ssRNA)
# RNA: GGGAGUUCUACAGUCCGACGAUCUUGGGUGUUCCCUCUUCUUAUUUUCUCUCUGCCCACCUUGACACAGUAACUUCCUCUUACCGUCAAGAUGAUGAUUAAGUGUUUAAUUUUUAUUCCAUUUUGUUCUGCAACACGUUCAGGCAACAGAGGAUUGAGCAUCA
# B8: ENSG00000070961:be:win_801|CDS|ENSG00000070961|bound_else_gene|NA|bound_elsewhere_windowed (ssRNA)
# RNA: GGGAGUUCUACAGUCCGACGAUCGGAAGGCUCUGGAAGAAUGGUAGUUACAGCUGUAGGUGUAAAUUCUCAAACUGGAAUUAUCUUUACCUUACUUGGAGCUGGAGGUGAAGAGGAAGAGAAGAAAGAUGAGAAGAAAAAGGACAACAGAGGAUUGAGCAUCA
# B9: chr16:67395001:67395280:-|CDS|ENSG00000159714|control|control|control (ssRNA)
# RNA: GGGAGUUCUACAGUCCGACGAUCCCGGAUCCGACCCCAGGUAGGAGGGACUGUGCUGGGCCUCCGGUCCAGGUGGAGUGGGAUAGAAAGAAGCCUCUACCCUGGCGCUCGCCUCUGCUUCUUUUGGCGAUGUGGGGCCCUCAGCAACAGAGGAUUGAGCAUCA
# B10: ENSG00000198589:be:win_5251|CDS|ENSG00000198589|bound_else_gene|NA|bound_elsewhere_windowed (ssRNA)
# RNA: GGGAGUUCUACAGUCCGACGAUCGUGGUUUCCUCAGUAGAUUCAGCCCAAGCCUCAGAUAUGGGAGGAGAAUCACCAGGCAGUAGAUCAUCUAAUGCAAAAUUGCCCUCAGUUCCAACAGUUGAUUCAGUUUCACAAGAUCCGCAACAGAGGAUUGAGCAUCA
# B11: chr13:113097702:113097803:+|3pUTR|ENSG00000126217|unk|total|mutant (ssRNA)
# RNA: GGGAGUUCUACAGUCCGACGAUCAAAGAAAAUACAAAGAUGCAGUUUCUGCAGGGUGUGGCGUGGACCAGUGCUGCCGACCACCGCUCAGAGAGCCCUGCCCCUGCCUCACUGCACUGCAGCCUCCUCGGAGGCCGCACCUCCCAACAGAGGAUUGAGCAUCA
# B12: chr2:182777146:182777247:+|3pUTR|ENSG00000077232|msi1|FALSE|unique (ssRNA)
# RNA: GGGAGUUCUACAGUCCGACGAUCUGAAGAUGAAGAAAAAGUUUAAAAGAAAUUCUGACAGAUGACAUCAGAAGACACCUAUUUAGAAUGUUACAUUUAUGAUGGGAAUGAAUGAACAUUAUCUUAGACUUGCAGUUGUACUGCCAACAGAGGAUUGAGCAUCA
# B13: chrX:15345595:15346132:-|three_prime_utr|ENSG00000165197|control|control|control (ssRNA)
# RNA: GGGAGUUCUACAGUCCGACGAUCCAGACCAACCUUCCAUUCACACCAGCUAAGGAGUCCCUGGUUCAUUGAUGGAUGUCUUCUAGCUGCAGAUGCCUCUGCGCACCAAGGAAUGGAGAGGAGGGGACCCAUGUAAUCCUUUUGCAACAGAGGAUUGAGCAUCA
# B14: chr10:95606323:95606429:-|3pUTR|ENSG00000059573|unk|FALSE|bound_elsewhere (ssRNA)
# RNA: GGGAGUUCUACAGUCCGACGAUCCCAUGGCUGCUUUGUGUCACCUCAGUGACUUACAGUCCCCCUUGGCAUUUAGUUGGUACUAGAGCCAGUCAUCCUUAACAAAUCUUUUCACAUUUUAUUUCUUUCACAUGUAGUCAUCUUCAACAGAGGAUUGAGCAUCA
# Biological target: MSI1 full-length (mouse, UniProt Q61474 1-362)
# Test: nsRBNS (natural sequence RNA bind-n-seq); RBNS binding buffer (assumed for nsRBNS): 25 mM Tris pH 7.5, 150 mM KCl, 3 mM MgCl2, 0.01% Triton X-100, 500 ug/ml BSA, 20 U/ml SUPERase-In, 4 C; UNK is unkempt and MSI1 is Musashi-1; names of the RNAs are library labels; protein concentration not given here; high values mean tight binding
# UniProt Q61474, sequence (Q61474 whole entry): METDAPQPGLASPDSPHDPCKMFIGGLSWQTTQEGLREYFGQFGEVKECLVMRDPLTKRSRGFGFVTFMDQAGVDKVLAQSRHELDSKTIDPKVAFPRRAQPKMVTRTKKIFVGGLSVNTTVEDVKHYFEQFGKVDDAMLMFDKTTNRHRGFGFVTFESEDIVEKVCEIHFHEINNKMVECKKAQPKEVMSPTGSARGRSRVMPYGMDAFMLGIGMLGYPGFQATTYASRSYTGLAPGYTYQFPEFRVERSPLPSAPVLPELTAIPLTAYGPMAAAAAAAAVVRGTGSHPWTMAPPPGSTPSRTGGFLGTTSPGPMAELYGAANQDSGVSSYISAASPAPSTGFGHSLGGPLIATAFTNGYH
row,Binder,binding signal [enrichment R]
1,B1,0.321
2,B2,3.7
3,B3,0.383
4,B4,0.343
5,B5,0.411
6,B6,0.421
7,B7,0.712
8,B8,0.737
9,B9,0.505
10,B10,0.752
11,B11,0.48
12,B12,1.03
13,B13,0.394
14,B14,6.89
